# Test results published in PubChem BioAssay AID1345083 (National Center for Advancing Translational Sciences (NCATS), 2018).
# Out of some 94,000 compounds screened, about 6,200 (6.6%) were called active. The shares of active, inactive and inconclusive entries below differ from those in the screen. Calls come from the whole dose curve; as a rule, active = well fitted inhibition curve with a large enough effect; inconclusive = small, poorly fitted or top-dose-only effect; inactive = flat fitted curve, though single readings scatter. Potencies beside an inconclusive call are fits to weak or partial responses and may not hold up.
# Assay: Cytotoxic Profiling in HEK 293 Cell Line of Diverse Libraries Using Quantitative High-Throughput Screening; note: nearly all actives have a fitted effect of over 60% in size
# Conditions: HEK 293 viability, ATP luminescence (CellTiter-Glo), 48-72 h; series mostly up to 115 µM
# Outline: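 HEK 293 seeded at 250 cells/well receive compound via pintool. After 48 or 72 hr at 37 degree Celsius, 5% CO2 and 95% humidity, CellTiter-Glo is dispensed and luminescence read following 10 min at room temperature.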
# Potency is the fitted concentration of half-maximal effect; tags give direction and shape of the fitted curve.
row,SMILES,Potency
1,CCN(CCCNC(=O)c1nnn2cc(-c3ccccc3)[nH]c(=O)c12)c1ccccc1,"inconclusive: 79.4 µM [inhibitor, partial curve, poor fit]"
2,COC[C@@H]1[C@H](C(=O)NCc2ccc(F)cc2)CCC(=O)N1C,inactive
3,Cc1ccc(NC(=O)Cn2c(-c3ccc(F)cc3)nc(C)c(CCO)c2=O)cc1Cl,"inconclusive: 31.6 µM [inhibitor, full curve, poor fit]"
4,Cc1nn(-c2ccccc2)c2c1C(C(C)C)N(C1CCCN(C(=O)C3CC3)C1)C2=O (stereo unspecified),active: 28.2 µM
5,CCS(=O)(=O)N1CCCOCCNC(=O)[C@@H]2CCCC[C@@H]21,inactive
6,O=C(CCCN1C(=O)COc2ccc(C(=O)COc3ccc(F)cc3Cl)cc21)NCC1CC1,"inconclusive: 79.4 µM [inhibitor, partial curve, poor fit]"
7,CC(=O)Nc1ccc(CN2CCC[C@H]2c2nc(-c3ccnc(N4CCC(C(N)=O)CC4)c3)no2)cc1,"inconclusive: 2.82 µM [inhibitor, full curve, poor fit]"
8,OC(c1cccc(C(F)(F)F)c1)c1nc(Nc2cccnc2)n[nH]1 (stereo unspecified),"inconclusive: 63.1 µM [inhibitor, partial curve]"
9,COc1ccc(Cl)cc1S(=O)(=O)N1CCC(n2cnnc2C(C)C)CC1,inactive
10,CCOC(=O)C1CCN(C(=O)c2cn3cc(-c4ccc(F)cc4)sc3n2)CC1,inactive
11,Cc1cccc(-c2nocc2CCC(=O)NCc2cccs2)c1,inactive
12,CC(C)OCC(=O)N1CCN(c2nc(-c3ccccc3)nc3c2CCC3)CC1,"inconclusive: 63.1 µM [inhibitor, partial curve, poor fit]"
13,O=C(CCc1ccccc1)N1CCCc2ncc(C(=O)N3CCCC[C@@H]3Cc3ccccc3)cc21,"inconclusive: 89.1 µM [inhibitor, single point]"
14,Cn1cc(-c2ccncc2)cc1C(=O)NCc1ccc(Cl)cc1,"inconclusive: 56.2 µM [inhibitor, partial curve, poor fit]"
15,CC(C)(O)C#Cc1ccc(CN2CCCC(CCC(=O)Nc3ccccc3F)C2)s1 (stereo unspecified),"inconclusive: 50.1 µM [inhibitor, partial curve, poor fit]"
16,O=C(NCCCc1ccccc1)C1CCN(Cc2ccccc2-c2ccccc2F)CC1,active: 22.4 µM
17,CCn1nccc1C(=O)N1CCC(F)(c2nc(-c3ccncc3)no2)CC1,"inconclusive: 56.2 µM [inhibitor, partial curve, poor fit]"
18,CN(C(=O)c1ccccc1F)C1CCc2ccccc21 (stereo unspecified),"inconclusive: 112 µM [inhibitor, partial curve]"
19,O=C1Nc2ccccc2CC12CCCN2CC1CC1 (stereo unspecified),inactive
20,O=C1NCCCN1C1CCN(Cc2ccc(C(F)(F)F)cc2)CC1,"inconclusive: 112 µM [inhibitor, partial curve, poor fit]"
21,CCCC(=O)Nc1cccc(C(=O)NCCN2N=C(c3ccccc3)CCC2=O)c1,"inconclusive: 44.7 µM [inhibitor, partial curve, poor fit]"

row,SMILES,Potency
1,CSc1ccc(Nc2ncncc2-c2nc(-c3ccccc3)no2)cc1,inactive
2,COc1ccc(S(=O)(=O)Nc2cnc3c(c2)CCC3)cc1,"inconclusive: 35.5 µM [inhibitor, partial curve]"
3,O=C(CC1CCCCC1)N1CCCC(CN2CCCC2)C1 (stereo unspecified),inactive
4,Cn1c(CN(CCN2CCCCC2)CC2CCCN(C3CCCC3)C2)nc2ccccc21 (stereo unspecified),"inconclusive: 22.4 µM [inhibitor, full curve, poor fit]"
5,COc1ccccc1-c1ccnc(N[C@H]2CO[C@H]3[C@@H]2OC[C@@H]3NC(=O)NC2CCCCC2)n1,"inconclusive: 39.8 µM [inhibitor, partial curve, poor fit]"
6,CCC(C)C1=NS(=O)(=O)c2cc(NC(=O)c3ccco3)ccc2N1c1ccccc1 (stereo unspecified),"inconclusive: 17.8 µM [inhibitor, full curve, poor fit]"
7,CC(C)c1ccc(NC(=O)CN2C(=O)NC3(CCCCC3)C2=O)cc1,"inconclusive: 35.5 µM [inhibitor, partial curve]"
8,O=C(c1cccs1)N1CCCCCC1c1nc(C2CC2)no1 (stereo unspecified),inactive
9,CN1CCC(NC2(Cc3cc(C(C)(C)O)on3)COC2)CC1,inactive
10,Cc1ccc([S+](=O)([O-])N2CCC(C(=O)N3CCC(N4Cc5cccn5C4=O)CC3)CC2)cc1,"inconclusive: 50.1 µM [inhibitor, partial curve, poor fit]"
11,Cc1noc(-c2ccc(OC3CN(C(=O)CCc4ccccc4)C3)cc2)n1,"inconclusive: 50.1 µM [inhibitor, partial curve, poor fit]"
12,O=C(NCCCc1ccccc1)C1CCN(c2nccc(Nc3ccccc3F)n2)CC1,active: 35.5 µM
13,O=C(NCC1(COc2ccccc2)C[C@@H](O)[C@@H](O)C1)c1ccc(F)cc1 (stereo partly specified),"inconclusive: 112 µM [inhibitor, partial curve, poor fit]"
14,Cc1ccc(C)c(Cn2c(=O)c(-c3noc(C)n3)c3n(c2=O)CCCCC3)c1,"inconclusive: 3.55 µM [inhibitor, full curve, poor fit]"
15,Cn1ncc2c(C(=O)NC3CCc4ccccc43)cc(-c3cccc(C(F)(F)F)c3)nc21 (stereo unspecified),"inconclusive: 39.8 µM [inhibitor, full curve, poor fit]"
16,COc1ccc(CN2CCCC(c3[nH]ccc3C(N)=O)C2)cc1Cn1ccnc1 (stereo unspecified),inactive
17,COc1ccc(F)cc1-c1ccc(CN2CCC(NC(=O)C3CCCC3)C2)cc1 (stereo unspecified),"inconclusive: 50.1 µM [inhibitor, partial curve, poor fit]"
18,COCc1ccc2c(c1)c(OC(C)(C)C(=O)NCCc1cnc[nH]1)nn2Cc1ccccc1,"inconclusive: 79.4 µM [inhibitor, single point]"
19,Clc1ccc(-c2nnc3n2CCN(Cc2cccnc2)C3)cc1,inactive
20,COCC1CN(C2CCC2)CC12CCN(C(=O)COc1cccc(C)c1)CC2 (stereo unspecified),"inconclusive: 56.2 µM [inhibitor, partial curve, poor fit]"
